The supplement of paper PMC3334620
Over roughly 33,000 sequences, “E-score (-0.5 to 0.5)” has its median near -0.041; the highest 2% begin near 0.37. Some of the results follow.

These sequences were tested against T1, Ecm22 (UniProt Q05958) (assay: PBM E-score (8-mer binding enrichment) (E-score (-0.5 to 0.5)); higher = stronger / more preferred TF binding; most listed sequences are background and not binding sites). Conditions: protein concentration: 200 nM; construct: GST-full length.
T1 sequence: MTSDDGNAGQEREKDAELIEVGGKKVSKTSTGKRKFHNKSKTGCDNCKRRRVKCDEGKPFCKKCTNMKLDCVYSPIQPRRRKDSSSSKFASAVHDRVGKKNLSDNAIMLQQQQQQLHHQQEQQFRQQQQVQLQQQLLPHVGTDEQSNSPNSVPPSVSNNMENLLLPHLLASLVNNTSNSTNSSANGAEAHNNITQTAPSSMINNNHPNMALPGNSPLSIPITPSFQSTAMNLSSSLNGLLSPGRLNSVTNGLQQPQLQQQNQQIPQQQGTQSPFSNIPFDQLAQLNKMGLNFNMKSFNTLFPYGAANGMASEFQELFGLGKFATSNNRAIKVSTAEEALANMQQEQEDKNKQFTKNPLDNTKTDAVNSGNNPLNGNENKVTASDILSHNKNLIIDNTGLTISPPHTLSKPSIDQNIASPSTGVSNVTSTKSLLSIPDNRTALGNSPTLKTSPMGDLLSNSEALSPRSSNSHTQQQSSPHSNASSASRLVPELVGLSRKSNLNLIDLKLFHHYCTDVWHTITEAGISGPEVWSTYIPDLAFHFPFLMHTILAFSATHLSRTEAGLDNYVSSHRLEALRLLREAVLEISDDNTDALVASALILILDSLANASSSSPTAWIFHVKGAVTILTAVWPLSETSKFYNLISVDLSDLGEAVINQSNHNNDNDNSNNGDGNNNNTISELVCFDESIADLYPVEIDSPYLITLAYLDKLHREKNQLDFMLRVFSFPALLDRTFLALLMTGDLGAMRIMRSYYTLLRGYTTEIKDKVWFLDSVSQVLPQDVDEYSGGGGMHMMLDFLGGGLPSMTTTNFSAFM
Procedure, shortened: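 Full-length yeast transcription factors or their DNA-binding domains, GST-tagged and expressed with PURExpress, were applied at about 100-200 nM to universal all-10-mer Agilent arrays. These arrays had been made double-stranded by primer extension on fresh or once-stripped slides. Detection used fluorescent anti-GST, normalisation used masliner, and E-scores for ungapped eight-base words pooled with reverse complements came from the Universal PBM Analysis Suite.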

Sequence	PBM E-score
GAGGTAAA	0.174
GAGGGAAC	0.126
AACGTGTC	-0.00337
GGAGAGCC	-0.0815
CCGCTCAC	-0.123
GCTTACAC	0.0409
ACGTTGGG	-0.134
ATCCTGCC	-0.0749
GGAACAAC	0.0486
GTCCGCGA	0.0736
ATCGCCGC	-0.104
AAGGTGCC	-0.209
GTTGATAA	0.127
GGCCTCCA	-0.23
ACGGCTTC	0.104
GAGAATGA	0.0633
CGACCACG	0.257
CTGCAGCC	0.0309
AAGCTGAA	-0.238
GGAGCACC	-0.0878
ACTTGCCG	-0.00724
ATCGAGTG	0.137
AGTATGGC	-0.0838
CTGACAAC	-0.206
AGGTTTCG	0.0268

Sequence	PBM E-score
ATCAGGAC	-0.159
GGACGGCA	-0.0901
CGGATCGC	0.12
GTGTGACA	-0.117
GGAAGGCA	-0.24
CCATTTTA	0.0645
AATGCGCC	0.0324
CGTGGCCA	-0.162
AACTTTCT	-0.201
ATTTCTCC	-0.109
ATAGTAGC	0.127
CTACTAGA	-0.0477
CCCTTTAG	-0.319
TAATGCAA	-0.185
ATCTCTCC	-0.0913
AAGACGAA	0.059
CTAACCAG	-0.241
CAAATATG	0.0122
GATCAATC	-0.0134
GCCAACGC	-0.00897
AAACAGGA	-0.137
CAGCGCTG	-0.00531
CCGTAGGA	-0.0721
AAGTCTGT	-0.114
CTACCGTA	0.231

Sequence	PBM E-score
ACCGTTTC	0.187
GACCGCCC	-0.0157
CGGGTTGC	0.0581
ATACGAAG	0.466
AAATAAAC	0.24
CCGACAGC	0.0258
AGAGTCTC	-0.0866
CCGCAATC	0.06
AGGGGATA	-0.0724
CCTTAACA	-0.126
ATTTAGTG	0.0163
CTACTCCC	-0.136
ATGATATA	-0.0173
AGGTGTAT	-0.0483
ACGGTTAC	0.255
ATAGCACA	-0.00652
CTTGGGAC	-0.218
CGTAAACG	0.444
ATACAAAT	0.126
TAATAGCA	-0.0182
AGACGAAT	0.0921
ATTTCTTA	0.155
GCCCCCGA	-0.294
ACTGTTGG	-0.282
ATCTTCCG	0.101

Sequence	PBM E-score
ACCGATCT	-0.0191
AAGCATCG	0.128
CGATGAAG	0.0663
GTGGAGAA	-0.121
TACGCGTA	0.237
CCTTCGCA	0.183
GTTCCCTA	0.232
ACTACGAA	0.25
GCTACCTA	-0.156
GTGATGCA	-0.0499
AAACGGCC	0.29
CGGGTTGA	0.0529
CCTGGAAA	-0.139
ACGCAACA	0.107
GATCACCA	-0.0271
CTCAGCAC	-0.14
CACCAGCA	-0.028
ATGGCTGG	-0.136
ACATCCGT	0.181
CCGGGGTC	-0.056
ATCAAGGC	0.0443
TGGTGTAA	-0.028
CACTCCCA	-0.194
AACTAAAA	-0.116
AAACTACG	0.201

Sequence	PBM E-score
AACGTATA	0.411
CGCATGAG	-0.0679
ATTACAAT	0.0334
ATTCGTCG	0.135
CGTTCGAA	0.244
CCCCTCGC	0.162
AATGCAGA	-0.0678
GGACTACA	-0.249
GCTGATAA	0.0164
CGGAAAAC	0.141
CATAGATC	-0.186
GAGCGGTA	0.117
CTTCGTCC	-0.243
ACAAAAGA	0.159
ATGGGTAC	0.0792
TAAAGCGA	0.213
AGTTTAGG	-0.245
AACCATCT	-0.106
CACGATGC	0.136
TCTTGTCA	-0.211
TAAATTTA	0.232
CGATAATA	0.0859
GATCACTA	0.1
AACGTCCG	0.0477
CGTCCGTC	-0.115

Sequence	PBM E-score
AGTCCGCA	-0.0943
CTTCGACC	-0.131
AATTTGCC	-0.212
ATACCAAT	-0.00609
GATTAGCC	0.0338
CAATGCCG	-0.191
AAATACGG	0.265
TATTCTCA	-0.146
CCCTAGTC	-0.295
AGGCTCTC	-0.162
CCACCGTA	0.34
CTGACGCA	-0.319
GAAGGCTC	-0.174
ATAAGAAC	0.0216
CACATGAA	-0.0421
TCTTCGAA	0.108
CTAAGAAC	-0.00855
ATCAGCGG	0.00773
AACTTATA	0.199
ACGAGTAG	0.38
CAGCACGG	-0.184
GCAGTGAA	0.0776
AACGGTGT	0.247
CAGTACTC	-0.142
CACACATA	-0.177

Sequence	PBM E-score
CCGTGACC	-0.312
CTGTGCAA	-0.132
CCTGAGCG	-0.00786
TACGTCAA	-0.00876
AACCCAGA	-0.196
ACCATTAA	0.0643
ATTCCTTA	-0.079
AACTAATG	-0.0283
CCACTATC	-0.0843
GTTTGCTA	-0.032
GTAACATA	0.0905
GTATGACA	0.0872
ATGAGAGC	-0.157
ATCATTGA	0.058
CTTCCGCC	-0.242
GAACTTAA	0.0461
TTAACGAA	0.411
AGGCACGC	-0.216
CATAGTAC	0.044
GAACCCTC	-0.0601
GGTTCCGA	-0.00514
CTTGTAGA	-0.204
